The list shows a part of the results. Cleavage of a single-stranded DNA pool by Rep nickase domains was read by sequencing for 1 h at 37 °C with 3 µM enzyme; only the middle of the 90-letter strands is printed. A value is the log2 ratio of uncut reads to the pool without enzyme; more negative means more cut, near 0 not cut, and no call is made. Reads are scaled to the total; values above 0 arise when much of the pool is cut.
System: T1, Rep nickase domain of tomato golden mosaic virus
T1 sequence (Rep 1-124, printed without the tag): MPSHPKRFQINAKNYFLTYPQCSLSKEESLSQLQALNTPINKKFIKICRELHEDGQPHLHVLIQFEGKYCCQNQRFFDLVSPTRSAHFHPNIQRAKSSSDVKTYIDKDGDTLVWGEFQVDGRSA
Experiment: uncleaved DNA left, log2 of reads against the no-enzyme library (log2 ratio); higher = less cleavage (more negative = more Rep cleavage of the k-mer); sequences stand for … in CTCGTCCG…ACCGGAGA
Protocol: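 A pool of 90-nt single-stranded DNAs with seven random bases just before the constant AC of the nick site (name = the seven bases) was cut by 3 µM recombinant His6-SUMO-tagged Rep nickase domain (300 nM DNA, 50 mM HEPES pH 8.0, 50 mM NaCl, 1 mM MnCl2, 1 h, 37 °C, three replicates). Uncut DNA was amplified and sequenced.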

Sequence | uncleaved DNA left (log2)
TCCGCCT | -0.232
CACAAAA | 0.0815
AGGTGCT | 0.035
GCGCTTT | -0.164
AATTGTG | 0.0578
CAGGTTA | -0.0917
TAGATCC | -0.0261
GCTCGGT | -0.0313
GATGCGT | 0.0572
GAAGGCT | -0.0376
GCCTCAT | -0.147
ATGGAGA | 0.0509
CCAGTTT | -0.22
ACTAAAT | 0.149
TCGGGCC | -0.109
ATTTCCT | -0.0319
GGACTGA | 0.156
TTCTTGA | -0.0274
AGAGGCC | -0.0627
GCCGAGC | 0.016

Sequence | uncleaved DNA left (log2)
CGGCTGT | -0.0236
GGGCGTT | -0.00266
TGTTTAT | 0.167
GTCGCCA | 0.139
GTCTCCC | -0.147
TCAGCAA | 0.0453
CTTGCGA | -0.157
ACCAAGG | 0.159
TAATTCT | -4.64
TGTTCCC | -0.184
TTCGTAG | -0.0405
GGTTGTC | 0.0769
TCGTTAT | -0.17
AATTAAG | 0.0993
TTTATTG | 0.0575
TGATTGC | -0.111
CGTGCCG | -0.105
CCCGAAG | -0.157
AGCCACC | -0.0713
TCCGACC | -0.0245
